We go through 22 compounds from patent US12577227B2, “WDR5 inhibitors and modulators” (Vanderbilt University, priority 2019, dated 2026).

In the test the target is WDR5 (Homo sapiens, UniProt P61964). The experiment in a line: TR-FRET competition assay (MLL peptide binding, displacement of 10mer-Thr-FAM probe). The following applies: WDR5-His tag (Δ23, residues 24-334) 2 nM; 10mer-Thr-FAM 150 nM; Tb-anti-HIS 1 nM; 60 minutes room temperature; pH 7.2; read-out: Ki for Inhibition of WDR5 by TR-FRET assay.
In the case of `CCn1cc(-c2cc(Cn3ccnc3)cc3c2OCCN([C@H]2CCOc4ccc(OC)cc42)C3=O)c(C(F)(F)F)n1` [Example 63, (S)-7-((1H-imidazol-1-yl)methyl)-9-(1-ethyl-3-(trifluoromethyl)-1H-pyrazol-4-yl)-4-(6-methoxychroman-4-yl)-3,4-dihydrobenzo[f][1,4]oxazepin-5(2H)-one], the Ki – broadly, a measure of affinity in units of concentration, obtained from inhibition or displacement – is below 0.05 nM.

With `Cc1cc(C)nc(CN2CCOc3c(cc(Cn4cnn(C)c4=N)cc3-c3cn(C)nc3C(F)(F)F)C2=O)c1` [Example 31, 4-((4,6-dimethylpyridin-2-yl)methyl)-7-((5-imino-1-methyl-1,5-dihydro-4H-1,2,4-triazol-4-yl)methyl)-9-(1-methyl-3-(trifluoromethyl)-1H-pyrazol-4-yl)-3,4-dihydrobenzo[f][1,4]oxazepin-5(2H)-one], the Ki was below 0.05 nM.

`COc1cc(CN2CCOc3c(cc(Cn4ccn(C)c4=N)cc3-c3ccc(F)cc3C)C2=O)cc(OC)c1` [Example 3, 4-(3,5-Dimethoxybenzyl)-9-(4-fluoro-2-methylphenyl)-7-((2-imino-3-methyl-2,3-dihydro-1H-imidazol-1-yl)methyl)-3,4-dihydrobenzo[f][1,4]oxazepin-5(2H)-one]: the Ki was below 0.05 nM.

As for `Cc1ccnc(CN2C[C@@H](C)Oc3c(cc(Cn4ccnc4C)cc3-c3cn(C)nc3C(F)(F)F)C2=O)c1` [Example 40, (R)-2-Methyl-7-((2-methyl-1H-imidazol-1-yl)methyl)-9-(1-methyl-3-(trifluoromethyl)-1H-pyrazol-4-yl)-4-((4-methylpyridin-2-yl)methyl)-3,4-dihydrobenzo[f][1,4]oxazepin-5(2H)-one], the Ki was 0.12 nM.

Take `CCn1cc(-c2cc(Cn3ccnc3C)cc3c2OCCN([C@H](c2cc(OC)ccn2)C2CC2)C3=O)c(C(F)(F)F)n1` [Example 60, (S)-4-(Cyclopropyl(4-methoxypyridin-2-yl)methyl)-9-(1-ethyl-3-(trifluoromethyl)-1H-pyrazol-4-yl)-7-((2-methyl-1H-imidazol-1-yl)methyl)-3,4-dihydrobenzo[f][1,4]oxazepin-5(2H)-one]: the Ki is below 0.05 nM.

For `COc1cc(CN2CCOc3c(cc(Cn4cnn(C)c4=N)cc3-c3ccc(F)cc3C)C2=O)cc(OC)c1` [Example 6, 4-(3,5-Dimethoxybenzyl)-9-(4-fluoro-2-methylphenyl)-7-((5-imino-1-methyl-1,5-dihydro-4H-1,2,4-triazol-4-yl)methyl)-3,4-dihydrobenzo[f][1,4]oxazepin-5(2H)-one], the Ki is below 0.05 nM.

As to `COc1cc(CN2CC(=O)Nc3c(cc(Cn4ccoc4=N)cc3-c3ccc(F)cc3C)C2=O)cc(OC)c1` [Example 30, 4-(3,5-Dimethoxybenzyl)-9-(4-fluoro-2-methylphenyl)-7-((2-iminooxazol-3(2H)-yl)methyl)-3,4-dihydro-1H-benzo[e][1,4]diazepine-2,5-dione], the Ki is 0.16 nM.

`CCc1nccn1Cc1cc2c(c(-c3cn(C)nc3C(F)(F)F)c1)OCCN(Cc1cc(C)ccn1)C2=O` [Example 37, 7-((2-Ethyl-1H-imidazol-1-yl)methyl)-9-(1-methyl-3-(trifluoromethyl)-1H-pyrazol-4-yl)-4-((4-methylpyridin-2-yl)methyl)-3,4-dihydrobenzo[f][1,4]oxazepin-5(2H)-one]: the Ki is 0.15 nM.

Take `COc1cc(CN2CCOc3c(cc(CNc4ccccn4)cc3-c3ccc(F)cc3C)C2=O)cc(OC)c1` [Example 10, 4-(3,5-Dimethoxybenzyl)-9-(4-fluoro-2-methylphenyl)-7-((pyridin-2-ylamino)methyl)-3,4-dihydrobenzo[f][1,4]oxazepin-5(2H)-one]: the Ki was above 33 nM.

In the case of `Cc1cc(C)nc(CN2CCOc3c(cc(Cn4ccnc4C)cc3-c3cc(C)ccc3C)C2=O)c1` [Example 49, 9-(2,5-Dimethylphenyl)-4-((4,6-dimethylpyridin-2-yl)methyl)-7-((2-methyl-1H-imidazol-1-yl)methyl)-3,4-dihydrobenzo[f][1,4]oxazepin-5(2H)-one], the Ki is below 0.05 nM.

Take `COc1cc(Cn2cnc3c(-c4ccc(F)cc4C)cc(Cn4ccc5ccccc54)cc3c2=O)cc(OC)c1` [Example 4, 6-((1H-Indol-1-yl)methyl)-3-(3,5-dimethoxybenzyl)-8-(4-fluoro-2-methylphenyl)quinazolin-4(3H)-one]: the Ki is above 33 nM.

Take `COc1ccnc([C@H](C)N2CCOc3c(cc(Cn4ccnc4C)cc3-c3cn(C)nc3C(F)(F)F)C2=O)c1` [Example 47, (S)-4-(1-(4-Methoxypyridin-2-yl)ethyl)-7-((2-methyl-1H-imidazol-1-yl)methyl)-9-(1-methyl-3-(trifluoromethyl)-1H-pyrazol-4-yl)-3,4-dihydrobenzo[f][1,4]oxazepin-5(2H)-one]: the Ki is below 0.05 nM.

Take `Cc1cc(C)nc(CN2CCOc3c(cc(Cn4ccnc4C)cc3-c3cccnc3C(F)(F)F)C2=O)c1` [Example 42, 4-((4,6-Dimethylpyridin-2-yl)methyl)-7-((2-methyl-1H-imidazol-1-yl)methyl)-9-(2-(trifluoromethyl)pyridin-3-yl)-3,4-dihydrobenzo[f][1,4]oxazepin-5(2H)-one]: the Ki came out at 0.18 nM.

On to `COc1cc(CN2CCOc3c(cc(Cn4ccccc4=N)cc3-c3ccc(F)cc3C)C2=O)cc(OC)c1` [Example 8, 4-(3,5-Dimethoxybenzyl)-9-(4-fluoro-2-methylphenyl)-7-((2-iminopyridin-1(2H)-yl)methyl)-3,4-dihydrobenzo[f][1,4]oxazepin-5(2H)-one], for which the Ki amounted to 2.3 nM.

As for `COc1cc(Cn2cnc3c(-c4ccc(F)cc4C)cc(Cn4ccoc4=N)cc3c2=O)cc(OC)c1` [Example 19, 3-(3,5-Dimethoxybenzyl)-8-(4-fluoro-2-methylphenyl)-6-((2-iminooxazol-3(2H)-yl)methyl)quinazolin-4(3H)-one], the inhibitory constant (Ki) came to 2.8 nM.

Turning to `Cc1ccnc(CN2CCOc3c(cc(Cn4ccn(C)c4=N)cc3-c3ccc(F)cc3C)C2=O)c1` [Example 11, 9-(4-Fluoro-2-methylphenyl)-7-((2-imino-3-methyl-2,3-dihydro-1H-imidazol-1-yl)methyl)-4-((4-methylpyridin-2-yl)methyl)-3,4-dihydrobenzo[f][1,4]oxazepin-5(2H)-one], the Ki was below 0.05 nM.

Regarding `COc1cc(CN2CCOc3c(cc(Cn4cnn(C)c4=N)cc3-c3cn(C)nc3C(F)(F)F)C2=O)cc(OC)c1` [Example 15, 4-(3,5-Dimethoxybenzyl)-7-((5-imino-1-methyl-1,5-dihydro-4H-1,2,4-triazol-4-yl)methyl)-9-(1-methyl-3-(trifluoromethyl)-1H-pyrazol-4-yl)-3,4-dihydrobenzo[f][1,4]oxazepin-5(2H)-one], the Ki is below 0.05 nM.

In the case of `CCc1cc(OC)c2nccc(N3CCOc4c(cc(Cn5ccnc5)cc4-c4cn(C)nc4C(F)(F)F)C3=O)c2c1` [Example 67, 7-((1H-imidazol-1-yl)methyl)-4-(6-ethyl-8-methoxyquinolin-4-yl)-9-(1-methyl-3-(trifluoromethyl)-1H-pyrazol-4-yl)-3,4-dihydrobenzo[f][1,4]oxazepin-5(2H)-one], the Ki was below 0.05 nM.

For the compound `CCn1cc(-c2cc(Cn3ccnc3)cc3c2OCCN([C@H](c2cc(OC)ccn2)C2CC2)C3=O)c(C(F)(F)F)n1` [Example 59, (S)-7-((1H-Imidazol-1-yl)methyl)-4-(cyclopropyl(4-methoxypyridin-2-yl)methyl)-9-(1-ethyl-3-(trifluoromethyl)-1H-pyrazol-4-yl)-3,4-dihydrobenzo[f][1,4]oxazepin-5(2H)-one], the Ki was below 0.05 nM.

With `COc1cc(CN2CC(=O)Nc3c(cc(Cn4ccn(C)c4=N)cc3-c3ccc(F)cc3C)C2=O)cc(OC)c1` [Example 14, 4-(3,5-Dimethoxybenzyl)-9-(4-fluoro-2-methylphenyl)-7-((2-imino-3-methyl-2,3-dihydro-1H-imidazol-1-yl)methyl)-3,4-dihydro-1H-benzo[e][1,4]diazepine-2,5-dione], the inhibition constant (Ki) turned out to be 0.14 nM.

Take `COc1cc(Cn2cnc3c(-c4ccc(F)cc4C)cc(Cc4c[nH]c5ccccc45)cc3c2=O)cc(OC)c1` [Example 2, 6-((1H-Indol-3-yl)methyl)-3-(3,5-dimethoxybenzyl)-8-(4-fluoro-2-methylphenyl)quinazolin-4(3H)-one]: the inhibitory constant (Ki) is above 33 nM.

Take `COc1cnc2cccc(N3CCOc4c(cc(Cn5ccnc5)cc4-c4cn(C)nc4C(F)(F)F)C3=O)c2c1` [Example 70, 7-((1H-imidazol-1-yl)methyl)-4-(3-methoxyquinolin-5-yl)-9-(1-methyl-3-(trifluoromethyl)-1H-pyrazol-4-yl)-3,4-dihydrobenzo[f][1,4]oxazepin-5(2H)-one]: the Ki is below 0.05 nM.
